The whole screen tested about 310,000 compounds, of which about 14,000 (4.5%) showed an effect of 50% or more. The effect is printed as a negative number. The list shows a part of the results.
molecular target: human ether-à-go-go-related gene (hERG) potassium channel (human, UniProt Q12809); assay: primary screen, population patch clamp on CHO cells stably expressing hERG
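Note: peak tail current of the secondary pulse compared with the same well before compound.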

human ether-à-go-go-related gene (hERG) potassium channel, sequence (Q12809 whole entry, looked up): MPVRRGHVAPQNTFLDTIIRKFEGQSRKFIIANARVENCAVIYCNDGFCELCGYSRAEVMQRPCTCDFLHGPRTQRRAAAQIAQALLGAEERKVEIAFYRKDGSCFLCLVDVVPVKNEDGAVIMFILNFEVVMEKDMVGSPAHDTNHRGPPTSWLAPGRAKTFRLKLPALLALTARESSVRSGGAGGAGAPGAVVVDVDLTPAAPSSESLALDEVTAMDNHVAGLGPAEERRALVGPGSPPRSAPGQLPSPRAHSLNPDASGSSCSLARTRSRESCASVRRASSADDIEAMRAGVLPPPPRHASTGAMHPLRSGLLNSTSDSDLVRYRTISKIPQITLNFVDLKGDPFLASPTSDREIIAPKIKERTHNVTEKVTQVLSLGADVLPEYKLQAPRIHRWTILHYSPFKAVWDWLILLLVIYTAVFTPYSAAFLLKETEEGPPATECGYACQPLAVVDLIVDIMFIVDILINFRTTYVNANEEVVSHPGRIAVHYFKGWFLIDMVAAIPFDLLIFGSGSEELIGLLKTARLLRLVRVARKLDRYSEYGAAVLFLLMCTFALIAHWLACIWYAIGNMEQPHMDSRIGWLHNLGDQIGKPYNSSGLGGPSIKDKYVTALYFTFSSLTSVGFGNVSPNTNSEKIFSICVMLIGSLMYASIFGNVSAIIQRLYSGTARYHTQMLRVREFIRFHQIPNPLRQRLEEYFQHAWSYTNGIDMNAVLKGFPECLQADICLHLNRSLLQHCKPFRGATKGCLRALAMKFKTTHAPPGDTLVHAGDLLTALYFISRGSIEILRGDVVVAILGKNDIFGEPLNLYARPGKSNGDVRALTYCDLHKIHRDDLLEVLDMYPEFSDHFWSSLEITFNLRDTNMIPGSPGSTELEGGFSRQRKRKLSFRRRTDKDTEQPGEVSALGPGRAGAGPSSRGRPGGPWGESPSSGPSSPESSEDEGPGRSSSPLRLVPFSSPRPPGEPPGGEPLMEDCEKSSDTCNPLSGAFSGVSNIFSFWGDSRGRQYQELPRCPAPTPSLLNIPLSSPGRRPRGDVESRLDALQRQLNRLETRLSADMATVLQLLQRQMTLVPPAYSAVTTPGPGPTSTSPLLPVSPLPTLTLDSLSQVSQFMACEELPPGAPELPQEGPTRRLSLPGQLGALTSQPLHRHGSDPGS

SMILES	hERG current change (%, negative = inhibition) at 10uM
CC(=O)N1CCC(N(CCCOC(C)C)C(=O)Nc2ccc(Cl)cc2)CC1	-33%
COc1ccccc1NC(=O)CSc1nnc(Cn2c(=O)sc3ccccc32)n1C	-44%
COc1ccc(C2=C(C#N)C(=O)OC2)cc1	-3.7%
CCCCP(=O)(CCCC)CCP(=O)(c1ccccc1)c1ccccc1	-3.22%
COC(=O)c1ccccc1S(=O)(=O)Nc1ccc2cn[nH]c2c1	6.26%
CCOC(=O)c1ccc(NC(=S)N2CCSC2c2ccc(Cl)cc2)cc1 (stereo not shown)	9.47%
CN(C(=O)Nc1cnccc1C(F)(F)F)C1CCCCC1	19.6%
CCC1=Nc2cc(C(=O)NCCN3CCOCC3)ccc2Sc2ccc(C)cc21	-82.3%
Cc1ccc(S(=O)(=O)N2CCC(C(=O)N[C@H](C(=O)NC3CCS(=O)(=O)C3)C(C)C)CC2)cc1 (stereo partly shown)	13.5%
COC(=O)c1cc(=O)n2c(-c3ccc(OC)cc3)csc2n1	1.63%
O=C(O)C1CCCCC1C(=O)NCCCN1CCCC1=O (stereo not shown)	24.7%
CCCNC1=CC(=O)CC(C)(C)C1	2.61%
COc1cc(OC)c2ccc(=O)oc2c1C(CCN1CCN(c2ccccc2)CC1)c1ccc(N(C)C)cc1 (stereo not shown)	-11.7%
Cc1c(C(=O)NCc2cccnc2)oc2ccc(S(=O)(=O)N3CCCCC3)cc12	-33.4%
COc1ccc(-c2csc(NC(=O)COC(=O)c3ccc(Br)o3)n2)cc1	21.5%
COC(=O)CCCC1=CC2=C(c3ccccc3)C(=O)C(C)(OC(=O)C3CCCC3)C(=O)C2=CN1C1CC1 (stereo not shown)	-10.8%
Cc1ccc(S(=O)(=O)NC(CC(=O)O)c2ccc(F)cc2)cc1 (stereo not shown)	10.1%
Cc1cc(C)nc(N(C#N)CC(=O)c2ccccc2)n1	-42.9%
O=c1c2ccccc2[nH]c2ccc(O)cc12	-2.76%
COc1ccc2oc(=O)c(C(=O)C[n+]3cccc(C)c3)cc2c1.[Br-]	5.73%
Cc1ccsc1C(=O)OCC(=O)Nc1cccc(S(=O)(=O)NC2=NCCCCC2)c1	-5.92%
O=c1oc2ccccc2c(Cl)c1CN1CCCCC1	24.1%

SMILES	hERG current change (%, negative = inhibition) at 10uM
O=c1c2cc(F)ccc2[nH]c(=S)n1CCCN1CCOCC1	-3.61%
O=C(c1ccco1)c1n[nH]nc1-c1ccccc1	15.4%
O=C(NCC1CCCO1)Nc1ccc2c(c1)OCO2 (stereo not shown)	14.6%
Cc1ccc(NC(=O)c2ccc(NCCCN3CCC(C)CC3)c([N+](=O)[O-])c2)c(C)c1	-19.4%
COc1ccc(-n2c(Cc3cccn3C)nnc2SCC(=O)Nc2cccc(C)c2C)cc1	-47.1%
COc1ccc(N2C(=O)CC(NNC(=O)c3cc(C)oc3C)C2=O)cc1 (stereo not shown)	23.6%
CCn1ncc(Br)c1C(=O)Nc1sc2c(c1C(N)=O)CCC2	-2.94%
O=C(/C=C/c1ccccc1F)c1cccc([N+](=O)[O-])c1	30.8%
O=C1NC(c2ccccc2)Nc2c1sc(=S)n2-c1ccccc1 (stereo not shown)	-0.422%
CCc1ccc(/C=C2\SC(=S)N(CCCC(=O)Nc3nccs3)C2=O)cc1	8.83%
CC/S(CC1CC1(Cl)Cl)=N\S(=O)(=O)c1ccc(C)cc1 (stereo not shown)	5.94%
O=c1c2ccccc2nc(SCCN2CCCCC2)n1CCc1ccccc1	-71.7%
CC1C(=O)N(Cc2cccc(F)c2)c2ccccc2N1C(=O)c1ccccc1 (stereo not shown)	-4.75%
COCCn1c(C)cc(C(=O)COC(=O)c2ccc3c(c2)NC(=O)CS3)c1C	-2.47%
CCOc1ccccc1N1CCN(CC(=O)Nc2ccccc2C(=O)NC2CC2)CC1	-70.2%
C/C(=N\Nc1ccc(S(=O)(=O)N2CCCCC2)cn1)c1ccc(O)cc1	-37.2%
CN(C)/C=C/C(=O)/C=C/c1ccc(Cl)cc1	1.35%
COc1ccc(N2CCN(C(=O)COC(=O)CNC(=O)c3cccc(OC(F)F)c3)CC2)cc1	-43.7%
O=C(CN1CCN(Cc2ccccc2Cl)CC1)N/N=C/C=C\c1ccccc1[N+](=O)[O-]	-76.2%
COc1ccccc1CN(CC(=O)NCc1ccco1)C(=O)CNS(=O)(=O)c1ccccc1	-15.8%
CC(/C=C/C=C/c1ccccc1)=N\NC(=O)c1cccnc1	-19.1%
Cc1ccc(P(=O)(CSC(=N)N)c2ccc(C)cc2)cc1.Cl	-24.9%

SMILES	hERG current change (%, negative = inhibition) at 10uM
N#C/C(=N\Nc1ccccc1Cl)C(=O)c1ccccc1	23.5%
Cc1ccc(NC(=O)c2cc(S(=O)(=O)N3CCOCC3)cn2C)c(C)c1	0.0471%
COc1cccc(CNc2ncc(-c3ccccc3)n2C)c1	-35.6%
CCCC(O)(c1ccc(CC)cc1)C(CN1CCOCC1)c1ccccc1.Cl (stereo not shown)	-7.6%
CCn1nc(C)c(CNC(=O)c2cc(COc3ccc(F)cc3Cl)on2)c1C	-25.9%
CCOC(=O)C1(Cc2ccccc2)CCN(Cc2cccc3c2OCO3)CC1	-36.7%
Cc1cc(OCC(=O)NC(C)C)ccc1Cl	14.6%
O=C(COc1ccc(Cl)cc1)NCc1nnc(SCC(=O)c2ccccc2)o1	3.94%
Cc1ccccc1OCC(=O)Nc1c2c(nn1C(C)(C)C)CS(=O)(=O)C2	-1.05%
CCN(Cc1ccccc1)C(=O)Cc1c[nH]c2ccccc12	13.7%
COC(=O)CSc1nnc(CNC(=O)c2ccccc2OC)n1C	-2.12%
COc1ccc(-c2csc(NC(=O)CCN3C(=O)C4CC=CCC4C3=O)n2)cc1OC (stereo not shown)	-18%
CCc1ccccc1NC(=O)CN1CCN(C(=O)CNC(=O)c2ccc(-c3ccccc3)cc2)CC1	-57%
Cc1ccc2c(cnn2C(=O)CCC(=O)NCc2cccc(Cl)c2)c1	9.24%
O=c1[nH]c2ccccc2nc1-c1c[nH]c2ccccc12	21.5%
CCOCCCNC(=O)CN1CCN(c2ccc(F)cc2)CC1.O=C(O)C(=O)O	-13.1%
O=C(Cc1ccccc1)NC(Cc1ccc(Cl)cc1)C(=O)O (stereo not shown)	8.41%
Cc1nn(CCCNC(=O)C2CCCO2)cc1Br (stereo not shown)	15.5%
COC(=O)Cn1c(=NC(=O)c2ccc(OC)cc2)sc2cc(OC)ccc21	2%
COc1cc(Cl)c(C)cc1NC(=O)CNC(C)c1ccccc1OC (stereo not shown)	-2.85%
CCOc1ccc(S(=O)(=O)N2CCC(C(=O)N3CCN(Cc4ccccc4)CC3)CC2)cc1	-22.8%
c1cnc2c(c1)ccc1cccnc12	20.7%

SMILES	hERG current change (%, negative = inhibition) at 10uM
C/C(=N/OCO/N=C(\C)c1ccc(F)cc1F)c1ccc(F)cc1F	10.1%
CCOc1cc(C2CC(=O)Nc3cc(C)c(C)cc32)ccc1O (stereo not shown)	-3.27%
CCN=C1SC(CC(=O)Nc2ccc(C(F)(F)F)cc2)C(=O)N1CC (stereo not shown)	-11.9%
CCN1CCN(C(=O)C(=O)c2cn(CC(=O)N3CCCC3)c3ccccc23)CC1	15.1%
O=C(CCC(=O)OCC(=O)c1ccc(Cl)cc1)NC1CCCCC1	-8.6%
CC(=O)OCC(=O)Nc1ccc(Cl)cc1Cl	5.44%
COc1cccc(C(=O)NC2CCN(CC(=O)Nc3cccc(C)c3C)CC2)c1	32.2%
O=C(NCCn1ccc2ccccc21)c1ccc2c(c1)OCO2	-12.8%
O=c1[nH]c(=O)n(-c2ccc(F)cc2)c(O)c1C=NCCN1CCCCC1	-14.3%
COc1ccc(NC(=O)CN2C(=O)COc3ccc(S(=O)(=O)N4CCCCC4)cc32)c(OC)c1	4.84%
Cc1cc(C)n2nc(C(=O)NCc3cccc(C(F)(F)F)c3)nc2n1	-11.7%
COc1cccc(C(C)NC(=O)Nc2cccc(C(F)(F)F)c2)c1 (stereo not shown)	-6.17%
CCOC(=O)N1CCC(NC(=O)c2cc3c(-c4ccccc4F)nn(C)c3s2)CC1	13.5%
CC(=O)N1CCC2(CC1)CC(=O)c1cc(Cl)ccc1O2	-55.2%
Cc1ccc(NS(=O)(=O)c2c(C(=O)N3CCOCC3)c(C)n(C)c2C)cc1C	9.01%
O=C(NC1CCC(O)CC1)c1ccc(-c2ccc(Cl)cc2)o1 (stereo not shown)	-21.8%
CSc1ccccc1C(=O)OCC(=O)N1CCN(C(C)=O)CC1	17.4%
CCN1c2ccccc2-c2nc3ccccc3n2C1c1ccncc1 (stereo not shown)	-5.74%
CC(=O)Nc1sc(C)c(C)c1C(=O)OCC(=O)NCc1ccc(F)cc1	10.9%
COc1ccc(CCNC(=O)C2CCN(S(=O)(=O)c3ccc4c(c3)oc(=O)n4C)CC2)cc1OC	13.8%
O=c1[nH]c2ccc(S(=O)(=O)NCc3ccccn3)cc2s1	14.9%
N#Cc1ccc(CN2CCN(CC(=O)NCCc3ccc(Cl)cc3Cl)CC2)cc1	-68.8%
